Assay results published in the supplement of paper PMC8728848.
The other results are listed elsewhere or left out.

Tests used:
Assay in all cases: glycan array binding signal (z-score within array); higher = stronger binding
Settings in all cases: glycan notation: IUPAC condensed, linker removed
[1] = molecular target: Fuc(a1-3)[Gal3S(b1-4)]GlcNAc6S
Procedure, shortened: (§1)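 From the Consortium for Functional Glycomics database, 3228 arrays were curated, keeping only those whose protein sequence was available. Binding is given as a within-array Z-score averaged across arrays sharing a protein sequence and across linkers. Negative Z-scores can be read as non-binding.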

[2] = molecular target: Fuc(a1-3)[GalNAc(b1-4)]GlcNAc
Procedure, shortened: as §1

[3] = molecular target: Fuc(a1-3)[GalNAc(b1-4)]GlcNAc6S
Procedure, shortened: as §1

Fuc(a1-4)GlcNAc = molecular target: Fuc(a1-4)GlcNAc
Procedure, shortened: as §1

Fuc(b1-3)GlcNAc = molecular target: Fuc(b1-3)GlcNAc
Procedure, shortened: as §1

Gal(a1-2)Gal = molecular target: Gal(a1-2)Gal
Procedure, shortened: as §1

Gal(a1-3)Gal = molecular target: Gal(a1-3)Gal
Procedure, shortened: as §1

Gal(a1-3)Gal(b1-3)GlcNAc = molecular target: Gal(a1-3)Gal(b1-3)GlcNAc
Procedure, shortened: as §1

[4] = molecular target: Gal(a1-3)Gal(b1-3)GlcNAc(b1-2)Man
Procedure, shortened: as §1

[5] = molecular target: Gal(a1-3)Gal(b1-3)GlcNAc(b1-2)Man(a1-3)[Gal(a1-3)Gal(b1-3)GlcNAc(b1-2)Man(a1-6)]Man(b1-4)GlcNAc(b1-4)GlcNAc
Procedure, shortened: as §1

[6] = molecular target: Gal(a1-3)Gal(b1-3)GlcNAc(b1-3)GalNAc
Procedure, shortened: as §1

[7] = molecular target: Gal(a1-3)Gal(b1-3)GlcNAc(b1-6)GalNAc
Procedure, shortened: as §1

[8] = molecular target: Gal(a1-3)Gal(b1-3)[Fuc(a1-4)]GlcNAc(b1-2)Man(a1-3)[Gal(a1-3)Gal(b1-3)[Fuc(a1-4)]GlcNAc(b1-2)Man(a1-6)]Man(b1-4)GlcNAc(b1-4)GlcNAc
Procedure, shortened: as §1

Gal(a1-3)Gal(b1-4)Glc = molecular target: Gal(a1-3)Gal(b1-4)Glc
Procedure, shortened: as §1

Gal(a1-3)Gal(b1-4)GlcNAc = molecular target: Gal(a1-3)Gal(b1-4)GlcNAc
Procedure, shortened: as §1

[9] = molecular target: Gal(a1-3)Gal(b1-4)GlcNAc(b1-2)Man
Procedure, shortened: as §1

[10] = molecular target: Gal(a1-3)Gal(b1-4)GlcNAc(b1-2)Man(a1-3)[Gal(a1-3)Gal(b1-4)GlcNAc(b1-2)Man(a1-6)]Man(b1-4)GlcNAc(b1-4)GlcNAc
Procedure, shortened: as §1

[11] = molecular target: Gal(a1-3)Gal(b1-4)GlcNAc(b1-3)GalNAc
Procedure, shortened: as §1

[12] = molecular target: Gal(a1-3)Gal(b1-4)GlcNAc(b1-6)GalNAc
Procedure, shortened: as §1

[13] = molecular target: Gal(a1-3)Gal(b1-4)[Fuc(a1-3)]GlcNAc
Procedure, shortened: as §1

[14] = molecular target: Gal(a1-3)Gal(b1-4)[Fuc(a1-3)]GlcNAc(b1-2)Man(a1-3)[Gal(a1-3)Gal(b1-4)[Fuc(a1-3)]GlcNAc(b1-2)Man(a1-6)]Man(b1-4)GlcNAc(b1-4)GlcNAc
Procedure, shortened: as §1

Gal(a1-3)GalNAc = molecular target: Gal(a1-3)GalNAc
Procedure, shortened: as §1

[15] = molecular target: Gal(a1-3)[Gal(a1-4)]Gal(b1-4)GlcNAc
Procedure, shortened: as §1

[16] = molecular target: Gal(a1-4)Gal(b1-3)GlcNAc(b1-2)Man(a1-3)[Gal(a1-4)Gal(b1-3)GlcNAc(b1-2)Man(a1-6)]Man(b1-4)GlcNAc(b1-4)GlcNAc
Procedure, shortened: as §1

Gal(a1-4)Gal(b1-4)Glc = molecular target: Gal(a1-4)Gal(b1-4)Glc
Procedure, shortened: as §1

Gal(a1-4)Gal(b1-4)GlcNAc = molecular target: Gal(a1-4)Gal(b1-4)GlcNAc
Procedure, shortened: as §1

[17] = molecular target: Gal(a1-4)Gal(b1-4)GlcNAc(b1-2)Man(a1-3)[Gal(a1-4)Gal(b1-4)GlcNAc(b1-2)Man(a1-6)]Man(b1-4)GlcNAc(b1-4)GlcNAc
Procedure, shortened: as §1

[18] = molecular target: Gal(a1-4)Gal(b1-4)GlcNAc(b1-3)Gal(b1-4)Glc
Procedure, shortened: as §1

Gal(a1-4)GlcNAc = molecular target: Gal(a1-4)GlcNAc
Procedure, shortened: as §1

Gal(a1-6)Glc = molecular target: Gal(a1-6)Glc
Procedure, shortened: as §1

Gal(b1-2)Gal = molecular target: Gal(b1-2)Gal
Procedure, shortened: as §1

Gal(b1-3)Gal = molecular target: Gal(b1-3)Gal
Procedure, shortened: as §1

Gal(b1-3)Gal(b1-4)GlcNAc = molecular target: Gal(b1-3)Gal(b1-4)GlcNAc
Procedure, shortened: as §1

Gal(b1-3)GalNAc = molecular target: Gal(b1-3)GalNAc
Procedure, shortened: as §1

[19] = molecular target: Gal(b1-3)GalNAc(a1-3)[Fuc(a1-2)]Gal(b1-4)Glc
Procedure, shortened: as §1

[20] = molecular target: Gal(b1-3)GalNAc(a1-3)[Fuc(a1-2)]Gal(b1-4)GlcNAc
Procedure, shortened: as §1

Gal(b1-3)GalNAc(b1-3)Gal = molecular target: Gal(b1-3)GalNAc(b1-3)Gal
Procedure, shortened: as §1

B1: PX14379A-bvu-539-28-539 (Bacteroides vulgatus) (protein)
chain: EPYSEIIEEDYVPTEADEIALLATTYSQLRFVMDWYGLFDLQEESGDVIVTPTRPNGWDDGGTYKQMHKHTWDNQQGQPQSIWDYCYKGIANANKILKRADEGFFTEESKPKVVAEVKGVRALWYSILCDTHGNIPIQTSFSEEVPVQSTRKQVFDFIINELKEVMPNLPTEVNKSTYGRLTQWGAKCLMARMYLNAGVYTGTPMWNECLEQCNDIINSGLFSLETNYTDIFKTENSGCVETIFAIPYDEVYNEGDNNGPVFGAHMKFLSSNSRKVFNMQTTPWGGSAANPQFINSYDPDDMRLKYTWLQGDQYSPDGVLITTFPNKLPSIYKTDTDDGYRVGKYEIKVGAKSLLSNDFPYFRYTEVLLMKAECLLRLGQNETEAAHIVSQIRERAFRESAHPEKATVDAAWLKGDTHINYGTLDEKGQIDDAGNTEVVELGGLYDEWGWEFAAEARRRTDMIRFGTYQKKSWFNHTPTANDLNGNSILFPIHLDHLNTNPNLQQNPGYAGK
In the case of B1, the “glycan array binding signal (z-score)” value [1] is reported as 0.033, the “glycan array binding signal (z-score)” value [2] is reported as 0.137 and the “glycan array binding signal (z-score)” value [3] is reported as -0.37. The “glycan array binding signal (z-score)” value (Fuc(a1-4)GlcNAc) was -0.18, the “glycan array binding signal (z-score)” value (Fuc(b1-3)GlcNAc) was -0.368 and the “glycan array binding signal (z-score)” value (Gal(a1-2)Gal) was -0.24. The “glycan array binding signal (z-score)” value (Gal(a1-3)Gal) was -0.47, the “glycan array binding signal (z-score)” value (Gal(a1-3)Gal(b1-3)GlcNAc) was -0.085 and the “glycan array binding signal (z-score)” value [4] was -0.28. The “glycan array binding signal (z-score)” value [5] was -0.096, the “glycan array binding signal (z-score)” value [6] was -0.153 and the “glycan array binding signal (z-score)” value [7] was 0.008. The “glycan array binding signal (z-score)” value [8] was 0.484, the “glycan array binding signal (z-score)” value (Gal(a1-3)Gal(b1-4)Glc) was -0.295 and the “glycan array binding signal (z-score)” value (Gal(a1-3)Gal(b1-4)GlcNAc) was -0.52. For the same binder, the “glycan array binding signal (z-score)” value [9] was -0.201, the “glycan array binding signal (z-score)” value [10] was 3 and the “glycan array binding signal (z-score)” value [11] was -0.341. For the same binder, the “glycan array binding signal (z-score)” value [12] was -0.502, the “glycan array binding signal (z-score)” value [13] was -0.416 and the “glycan array binding signal (z-score)” value [14] was 2.63. For the same binder, the “glycan array binding signal (z-score)” value (Gal(a1-3)GalNAc) was -0.339, the “glycan array binding signal (z-score)” value [15] was 0.784 and the “glycan array binding signal (z-score)” value [16] was 0.016. The “glycan array binding signal (z-score)” value (Gal(a1-4)Gal(b1-4)Glc) was -0.512, the “glycan array binding signal (z-score)” value (Gal(a1-4)Gal(b1-4)GlcNAc) was 0.206 and the “glycan array binding signal (z-score)” value [17] was 0.469. For the same binder, the “glycan array binding signal (z-score)” value [18] was -0.391, the “glycan array binding signal (z-score)” value (Gal(a1-4)GlcNAc) was -0.226 and the “glycan array binding signal (z-score)” value (Gal(a1-6)Glc) was -0.065. The “glycan array binding signal (z-score)” value (Gal(b1-2)Gal) was -0.329, the “glycan array binding signal (z-score)” value (Gal(b1-3)Gal) was -0.377 and the “glycan array binding signal (z-score)” value (Gal(b1-3)Gal(b1-4)GlcNAc) was -0.359. For the same binder, the “glycan array binding signal (z-score)” value (Gal(b1-3)GalNAc) was -0.242, the “glycan array binding signal (z-score)” value [19] was -0.048 and the “glycan array binding signal (z-score)” value [20] was -0.172. For the same binder, the “glycan array binding signal (z-score)” value (Gal(b1-3)GalNAc(b1-3)Gal) was -0.51.
